From patent publication US20230190870A1, “Method for Treating Lysosomal Storage Diseases with Histatin Peptides” (THE BOARD OF TRUSTEES OF THE UNIVERSITY OF ILLINOIS, priority 2020, published 2023)
Square brackets hold non-standard residues; d marks the D form. Peptide text beside a SMILES is read from it. pS = N[C@@H](COP(=O)(O)O)C(=O)O

Biological target: T1, TMEM97 (108-176) (Homo sapiens, UniProt Q5BJF2)
T1 construct: Three peptides, TMEM97 (108-176), TMEM97 (108-143) and TMEM97 (144-176), were synthesized; made in house; host or cells: chemical solid-phase synthesis (Fmoc, Wang resin)
Experiment: Isothermal titration calorimetry, TMEM97 (108-176)
Type: binding
Conditions: ITC
Experimental: Isothermal Titration Calorimetry (ITC). The three synthesized peptides, TMEM97 (108-176), TMEM97 (108-143) and TMEM97 (144-176) were prepared in ITC buffer (10 mM Tris, pH 7.4, 150 mM NaCl, 0.05% polysorbate 20) at 40 μM concentration and placed in the sample cell. All ITC experiments were performed while stirring at 395 rpm, in ITC buffer at 25° C. using a VP-ITC titration microcalorimeter from MicroCal™, LLC (Northampton, Mass.). The microsyringe was loaded with a Histatin 1 solution (500 μM in ITC buffer). All titrations were conducted using an initial injection of 2.5 μL followed by 35 identical injections of 5 μL with a duration of 16 seconds (per injection) and a spacing of 210 seconds between injections. The buffer control titration (Histatin 1 into buffer) signals were subtracted from the experimental data. The collected data were evaluated using NITPIC (NIH), SEDPHAT (NIH), and GUSSI (NIH).
To determine more precisely which segment of TMEM97 is necessary for binding of Hst1, multiple synthetic fragments of TMEM97 were generated (Table 6) and binding to Hst1 was tested using SPR. […] Smaller fragments of the C-terminal of TMEM97 were then constructed to represent the (predicted) luminal (108-143) and cytoplasmic (144-176) exposed segments of the C-terminus of TMEM97 based on modeling experiments previously described. […]

For CC(C)C[C@H](NC(=O)[C@H](Cc1ccc(O)cc1)NC(=O)[C@H](CC(N)=O)NC(=O)[C@H](CO)NC(=O)CNC(=O)[C@H](Cc1ccc(O)cc1)NC(=O)[C@H](CC(=O)O)NC(=O)CNC(=O)[C@H](Cc1ccc(O)cc1)NC(=O)[C@H](Cc1ccccc1)NC(=O)[C@@H]1CCCN1C(=O)[C@H](Cc1ccccc1)NC(=O)[C@H](CCC(=O)O)NC(=O)[C@H](CCCNC(=N)N)NC(=O)[C@H](Cc1c[nH]cn1)NC(=O)[C@H](CO)NC(=O)[C@H](Cc1c[nH]cn1)NC(=O)[C@H](Cc1c[nH]cn1)NC(=O)[C@H](CCCCN)NC(=O)[C@H](CCC(=O)O)NC(=O)[C@H](Cc1c[nH]cn1)NC(=O)[C@H](Cc1ccccc1)NC(=O)[C@H](CCCCN)NC(=O)[C@H](CCCNC(=N)N)NC(=O)[C@H](CCCNC(=N)N)NC(=O)[C@H](Cc1ccc(O)cc1)NC(=O)CNC(=O)[C@H](Cc1c[nH]cn1)NC(=O)[C@H](Cc1c[nH]cn1)NC(=O)[C@H](CCCNC(=N)N)NC(=O)[C@H](CCCCN)NC(=O)[C@H](CCC(=O)O)NC(=O)[C@H](Cc1c[nH]cn1)NC(=O)[C@H](COP(=O)(O)O)NC(=O)[C@@H](N)CC(=O)O)C(=O)N[C@@H](Cc1ccc(O)cc1)C(=O)N[C@@H](CC(=O)O)C(=O)N[C@@H](CC(N)=O)C(=O)O [Hst1] (H-D[pS]HEKRHHGYRRKFHEKHHSHREFPFYGDYGSNYLYDN-OH; N-terminus and C-terminus assumed), the ΔH was -4.9 ± 10.1 kcal/mol.
